Reference: the supplement of paper PMC8728848
The list shows a part of the results.

Key:
Test in all cases: glycan array binding signal (z-score within array); higher = stronger binding
Conditions in all cases: glycan notation: IUPAC condensed, linker removed
[1] = target: Gal(b1-4)GlcNAc(b1-3)Gal(b1-4)GlcNAc(b1-2)[Gal(b1-4)GlcNAc(b1-3)Gal(b1-4)GlcNAc(b1-6)]Man(a1-6)[Gal(b1-4)GlcNAc(b1-3)Gal(b1-4)GlcNAc(b1-2)Man(a1-3)]Man(b1-4)GlcNAc(b1-4)GlcNAc
Method in brief: (§1)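 The binding signal is a Z-score computed within each array and averaged over linkers. Arrays of the same protein sequence at different concentrations or buffers were also averaged together. Data originate from 3228 arrays in the Consortium for Functional Glycomics database, kept only where the protein sequence was available.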

[2] = target: Gal(b1-4)GlcNAc(b1-3)Gal(b1-4)GlcNAc(b1-2)[Gal(b1-4)GlcNAc(b1-3)Gal(b1-4)GlcNAc(b1-6)]Man(a1-6)[Gal(b1-4)GlcNAc(b1-3)Gal(b1-4)GlcNAc(b1-2)Man(a1-3)]Man(b1-4)GlcNAc(b1-4)[Fuc(a1-6)]GlcNAc
Method in brief: as §1

[3] = target: Gal(b1-4)GlcNAc(b1-3)Gal(b1-4)GlcNAc(b1-3)Gal(b1-4)GlcNAc
Method in brief: as §1

[4] = target: Gal(b1-4)GlcNAc(b1-3)Gal(b1-4)GlcNAc(b1-3)Gal(b1-4)GlcNAc(b1-2)Man(a1-3)[Gal(b1-4)GlcNAc(b1-3)Gal(b1-4)GlcNAc(b1-3)Gal(b1-4)GlcNAc(b1-2)Man(a1-6)]Man(b1-4)GlcNAc(b1-4)GlcNAc
Method in brief: as §1

[5] = target: Gal(b1-4)GlcNAc(b1-3)Gal(b1-4)GlcNAc(b1-3)Gal(b1-4)GlcNAc(b1-2)Man(a1-3)[Gal(b1-4)GlcNAc(b1-3)Gal(b1-4)GlcNAc(b1-3)Gal(b1-4)GlcNAc(b1-2)Man(a1-6)]Man(b1-4)GlcNAc(b1-4)[Fuc(a1-6)]GlcNAc
Method in brief: as §1

[6] = target: Gal(b1-4)GlcNAc(b1-3)Gal(b1-4)GlcNAc(b1-3)Gal(b1-4)GlcNAc(b1-2)[Gal(b1-4)GlcNAc(b1-3)Gal(b1-4)GlcNAc(b1-3)Gal(b1-4)GlcNAc(b1-6)]Man(a1-6)[Gal(b1-4)GlcNAc(b1-3)Gal(b1-4)GlcNAc(b1-3)Gal(b1-4)GlcNAc(b1-2)Man(a1-3)]Man(b1-4)GlcNAc(b1-4)[Fuc(a1-6)]GlcNAc
Method in brief: as §1

[7] = target: Gal(b1-4)GlcNAc(b1-3)Gal(b1-4)GlcNAc(b1-3)Gal(b1-4)GlcNAc(b1-3)Gal(b1-4)GlcNAc(b1-2)Man(a1-3)[Gal(b1-4)GlcNAc(b1-3)Gal(b1-4)GlcNAc(b1-3)Gal(b1-4)GlcNAc(b1-3)Gal(b1-4)GlcNAc(b1-2)Man(a1-6)]Man(b1-4)GlcNAc(b1-4)GlcNAc
Method in brief: as §1

[8] = target: Gal(b1-4)GlcNAc(b1-3)Gal(b1-4)GlcNAc(b1-3)Gal(b1-4)GlcNAc(b1-3)Gal(b1-4)GlcNAc(b1-2)Man(a1-3)[Gal(b1-4)GlcNAc(b1-3)Gal(b1-4)GlcNAc(b1-3)Gal(b1-4)GlcNAc(b1-3)Gal(b1-4)GlcNAc(b1-2)Man(a1-6)]Man(b1-4)GlcNAc(b1-4)[Fuc(a1-6)]GlcNAc
Method in brief: as §1

[9] = target: Gal(b1-4)GlcNAc(b1-3)Gal(b1-4)GlcNAc(b1-3)Gal(b1-4)GlcNAc(b1-3)Gal(b1-4)GlcNAc(b1-2)[Gal(b1-4)GlcNAc(b1-3)Gal(b1-4)GlcNAc(b1-3)Gal(b1-4)GlcNAc(b1-3)Gal(b1-4)GlcNAc(b1-6)]Man(a1-6)[Gal(b1-4)GlcNAc(b1-3)Gal(b1-4)GlcNAc(b1-3)Gal(b1-4)GlcNAc(b1-3)Gal(b1-4)GlcNAc(b1-2)Man(a1-3)]Man(b1-4)GlcNAc(b1-4)[Fuc(a1-6)]GlcNAc
Method in brief: as §1

[10] = target: Gal(b1-4)GlcNAc(b1-3)Gal(b1-4)GlcNAc(b1-3)Gal(b1-4)GlcNAc(b1-3)Gal(b1-4)GlcNAc(b1-3)Gal(b1-4)GlcNAc(b1-2)Man(a1-3)[Gal(b1-4)GlcNAc(b1-3)Gal(b1-4)GlcNAc(b1-3)Gal(b1-4)GlcNAc(b1-3)Gal(b1-4)GlcNAc(b1-3)Gal(b1-4)GlcNAc(b1-2)Man(a1-6)]Man(b1-4)GlcNAc(b1-4)GlcNAc
Method in brief: as §1

[11] = target: Gal(b1-4)GlcNAc(b1-3)Gal(b1-4)GlcNAc(b1-3)Gal(b1-4)GlcNAc(b1-3)Gal(b1-4)GlcNAc(b1-3)Gal(b1-4)GlcNAc(b1-2)Man(a1-3)[Gal(b1-4)GlcNAc(b1-3)Gal(b1-4)GlcNAc(b1-3)Gal(b1-4)GlcNAc(b1-3)Gal(b1-4)GlcNAc(b1-3)Gal(b1-4)GlcNAc(b1-2)Man(a1-6)]Man(b1-4)GlcNAc(b1-4)[Fuc(a1-6)]GlcNAc
Method in brief: as §1

[12] = target: Gal(b1-4)GlcNAc(b1-3)Gal(b1-4)GlcNAc(b1-3)Gal(b1-4)GlcNAc(b1-3)Gal(b1-4)GlcNAc(b1-3)Gal(b1-4)GlcNAc(b1-2)[Gal(b1-4)GlcNAc(b1-3)Gal(b1-4)GlcNAc(b1-3)Gal(b1-4)GlcNAc(b1-3)Gal(b1-4)GlcNAc(b1-3)Gal(b1-4)GlcNAc(b1-6)]Man(a1-6)[Gal(b1-4)GlcNAc(b1-3)Gal(b1-4)GlcNAc(b1-3)Gal(b1-4)GlcNAc(b1-3)Gal(b1-4)GlcNAc(b1-3)Gal(b1-4)GlcNAc(b1-2)Man(a1-3)]Man(b1-4)GlcNAc(b1-4)[Fuc(a1-6)]GlcNAc
Method in brief: as §1

[13] = target: Gal(b1-4)GlcNAc(b1-3)Gal(b1-4)GlcNAc(b1-3)Gal(b1-4)GlcNAc(b1-3)Gal(b1-4)GlcNAc(b1-3)Gal(b1-4)GlcNAc(b1-3)Gal(b1-4)GlcNAc(b1-2)Man(a1-3)[Gal(b1-4)GlcNAc(b1-3)Gal(b1-4)GlcNAc(b1-3)Gal(b1-4)GlcNAc(b1-3)Gal(b1-4)GlcNAc(b1-3)Gal(b1-4)GlcNAc(b1-3)Gal(b1-4)GlcNAc(b1-2)Man(a1-6)]Man(b1-4)GlcNAc(b1-4)GlcNAc
Method in brief: as §1

[14] = target: Gal(b1-4)GlcNAc(b1-3)Gal(b1-4)GlcNAc(b1-3)GalNAc
Method in brief: as §1

[15] = target: Gal(b1-4)GlcNAc(b1-3)Gal(b1-4)GlcNAc(b1-3)[Gal(b1-4)GlcNAc(b1-3)Gal(b1-4)GlcNAc(b1-6)]GalNAc
Method in brief: as §1

[16] = target: Gal(b1-4)GlcNAc(b1-3)Gal(b1-4)GlcNAc(b1-6)[Gal(b1-3)]GalNAc
Method in brief: as §1

[17] = target: Gal(b1-4)GlcNAc(b1-3)Gal(b1-4)[Fuc(a1-3)]GlcNAc(b1-3)Gal(b1-4)[Fuc(a1-3)]GlcNAc
Method in brief: as §1

[18] = target: Gal(b1-4)GlcNAc(b1-3)GalNAc
Method in brief: as §1

[19] = target: Gal(b1-4)GlcNAc(b1-3)[Fuc(a1-3)GlcNAc(b1-6)]Gal(b1-4)Glc
Method in brief: as §1

[20] = target: Gal(b1-4)GlcNAc(b1-3)[Gal(b1-4)GlcNAc(b1-6)]Gal(b1-4)GlcNAc
Method in brief: as §1

[21] = target: Gal(b1-4)GlcNAc(b1-3)[GlcNAc(b1-6)]Gal(b1-4)GlcNAc
Method in brief: as §1

[22] = target: Gal(b1-4)GlcNAc(b1-6)Gal(b1-4)GlcNAc
Method in brief: as §1

B1: CBM40 CPF071 (Clostridium perfringens) (protein)
chain: MAHHHHHHVGTGSNDDDDKSPDPMLSSLGEYKDINLESSNASNITYDLEKYKNLDEGTIVVRFNSKDSKIQSLLGISNSKTKNGYFNFYVTNSRVGFELRNQKNEGNTQNGTENLVHMYKDVALNDGDNTVALKIEKNKGYKLFLNGKMIKEVKDTNTKFLNNIENLDSAFIGKTNRYGQSNEYNFKGNIGFMNIYNEPLGDDYLLSKTGETK
- glycan array binding signal (z-score) [1]: 0.616
- glycan array binding signal (z-score) [2]: -0.522
- glycan array binding signal (z-score) [3]: -0.296
- glycan array binding signal (z-score) [4]: -0.093
- glycan array binding signal (z-score) [5]: -0.39
- glycan array binding signal (z-score) [6]: 0.435
- glycan array binding signal (z-score) [7]: -0.376
- glycan array binding signal (z-score) [8]: 0.149
- glycan array binding signal (z-score) [9]: 0.876
- glycan array binding signal (z-score) [10]: -0.037
- glycan array binding signal (z-score) [11]: -0.285
- glycan array binding signal (z-score) [12]: -0.381
- glycan array binding signal (z-score) [13]: -0.325
- glycan array binding signal (z-score) [14]: 0.218
- glycan array binding signal (z-score) [15]: 0.16
- glycan array binding signal (z-score) [16]: -0.258
- glycan array binding signal (z-score) [17]: -0.133
- glycan array binding signal (z-score) [18]: -0.419
- glycan array binding signal (z-score) [19]: -0.209
- glycan array binding signal (z-score) [20]: -0.457
- glycan array binding signal (z-score) [21]: -0.405
- glycan array binding signal (z-score) [22]: -0.512
